The source of these data is the supplement of paper PMC8047034.

Molecules are shown by their SMILES. Where a name gives a salt, the structure may show the parent alone. Some of the results follow. Single values are uncertain, as repeats are few or missing.

One experiment relates to OVCAR4. Briefly: log2 surviving fraction (library drug vs vehicle, or drug + carboplatin vs carboplatin alone; relative to plate median); ovarian cancer lines: OVCAR4 is platinum-sensitive and Ov4Carbo platinum-resistant; higher = more cell survival. Conditions: library drug concentration 10 µM, 7 days.
In a further experiment the test system is Ov4Carbo. The experiment is described as above. Particulars: library drug concentration 10 µM, 7 days.

`CO[C@@H]1[C@@H](OC(N)=O)[C@@H](O)[C@H](Oc2ccc3c(O)c(NC(=O)c4ccc(O)c(CC=C(C)C)c4)c(=O)oc3c2C)OC1(C)C` [Novobiocin sodium (Albamycin)]: the log2 surviving fraction was 0.239 in the experiment with OVCAR4 (carboplatin co-treatment 0 µM), 0.197 in the experiment on OVCAR4 (carboplatin co-treatment 5 µM), 0.556 with Ov4Carbo (carboplatin co-treatment 0 µM) and -0.326 in the experiment with Ov4Carbo (carboplatin co-treatment 5 µM).

`O=C(O)CSCC(=O)NC1CCSC1=O` (stereo unspecified) [Erdosteine]: the log2 surviving fraction in the experiment on OVCAR4 (carboplatin co-treatment 0 µM) came to 0.719; with OVCAR4 (carboplatin co-treatment 5 µM) it was 0.778; in the experiment with Ov4Carbo (carboplatin co-treatment 0 µM), 0.945; in the experiment on Ov4Carbo (carboplatin co-treatment 5 µM), 0.529.

Consider `CCNC(=O)CCC/C=C\C[C@@H]1[C@@H](/C=C/[C@@H](O)CCc2ccccc2)[C@H](O)C[C@@H]1O` [Bimatoprost], for which the log2 surviving fraction is 1.8 with OVCAR4 (carboplatin co-treatment 0 µM), -0.0423 in the experiment with OVCAR4 (carboplatin co-treatment 5 µM), 0.829 in the experiment on Ov4Carbo (carboplatin co-treatment 0 µM) and 2.28 with Ov4Carbo (carboplatin co-treatment 5 µM).

As to `CN(C)CCOc1ccc(/C(=C(/CCCl)c2ccccc2)c2ccccc2)cc1` [Toremifene Citrate (Fareston, Acapodene)], the log2 surviving fraction in the experiment with OVCAR4 (carboplatin co-treatment 0 µM) is -5.51; in the experiment with OVCAR4 (carboplatin co-treatment 5 µM) it was -1.82; with Ov4Carbo (carboplatin co-treatment 0 µM) it was -2.66; in the experiment with Ov4Carbo (carboplatin co-treatment 5 µM), -3.35.

Turning to `CC[C@H]1OC(=O)[C@H](C)[C@@H](O[C@H]2C[C@@](C)(OC)[C@@H](O)[C@H](C)O2)[C@H](C)[C@@H](O[C@@H]2O[C@H](C)C[C@H](N(C)C)[C@H]2O)[C@](C)(O)C[C@@H](C)CN(C)[C@H](C)[C@@H](O)[C@]1(C)O` [Azithromycin (Zithromax)], the log2 surviving fraction in the experiment on OVCAR4 (carboplatin co-treatment 0 µM) was -0.277; in the experiment on OVCAR4 (carboplatin co-treatment 5 µM), 0.107; in the experiment with Ov4Carbo (carboplatin co-treatment 0 µM) it was -0.151; in the experiment with Ov4Carbo (carboplatin co-treatment 5 µM) it was -0.635.

With `CCN(CC)CCOC(=O)C(c1ccccc1)c1ccccc1` [Adiphenine HCl], the log2 surviving fraction in the experiment on OVCAR4 (carboplatin co-treatment 0 µM) is 0.513; in the experiment on OVCAR4 (carboplatin co-treatment 5 µM) it was -0.197; in the experiment with Ov4Carbo (carboplatin co-treatment 0 µM), 0.0252; with Ov4Carbo (carboplatin co-treatment 5 µM) it was -0.0631.

`NC(=O)N1c2ccccc2C=Cc2ccccc21` [Carbamazepine (Carbatrol)]: the log2 surviving fraction in the experiment with OVCAR4 (carboplatin co-treatment 0 µM) was found to be 0.972; in the experiment on OVCAR4 (carboplatin co-treatment 5 µM) it was 0.384; in the experiment on Ov4Carbo (carboplatin co-treatment 0 µM), 0.219; in the experiment on Ov4Carbo (carboplatin co-treatment 5 µM), 0.466.

On to `COc1ccc2cc([C@H](C)C(=O)O)ccc2c1` [Naproxen (Aleve)], for which the log2 surviving fraction in the experiment with OVCAR4 (carboplatin co-treatment 0 µM) was 0.685; with OVCAR4 (carboplatin co-treatment 5 µM) it was 0.385; with Ov4Carbo (carboplatin co-treatment 0 µM), -1.38; with Ov4Carbo (carboplatin co-treatment 5 µM), -0.664.

Take `CCC1=C[C@@H]2CN(C1)Cc1c([nH]c3ccccc13)[C@@](C(=O)OC)(c1cc3c(cc1OC)N(C)[C@H]1[C@@](O)(C(=O)OC)[C@H](OC(C)=O)[C@]4(CC)C=CCN5CC[C@]31[C@@H]54)C2` [Vinorelbine (Navelbine)]: the log2 surviving fraction was -5.79 in the experiment with OVCAR4 (carboplatin co-treatment 0 µM), -4.7 in the experiment on OVCAR4 (carboplatin co-treatment 5 µM), -6.09 with Ov4Carbo (carboplatin co-treatment 0 µM) and -5.76 in the experiment with Ov4Carbo (carboplatin co-treatment 5 µM).

As to `Nc1ccc(S(N)(=O)=O)cc1` [Sulfanilamide], the log2 surviving fraction in the experiment on OVCAR4 (carboplatin co-treatment 0 µM) amounted to 0.114; in the experiment with OVCAR4 (carboplatin co-treatment 5 µM), 0.531; in the experiment on Ov4Carbo (carboplatin co-treatment 0 µM), 1.28; in the experiment with Ov4Carbo (carboplatin co-treatment 5 µM), 0.674.

For `NC(CO)C(=O)NNCc1ccc(O)c(O)c1O` (stereo unspecified) [Benserazide], the log2 surviving fraction was found to be 1.26 in the experiment on OVCAR4 (carboplatin co-treatment 0 µM), 1.04 in the experiment on OVCAR4 (carboplatin co-treatment 5 µM), 1.87 in the experiment on Ov4Carbo (carboplatin co-treatment 0 µM) and 1.98 in the experiment with Ov4Carbo (carboplatin co-treatment 5 µM).

Turning to `COC(=O)C1=C(C)NC(C)=C(C(=O)OC(C)C)C1c1cccc2nonc12` (stereo unspecified) [Isradipine (Dynacirc)], the log2 surviving fraction in the experiment with OVCAR4 (carboplatin co-treatment 0 µM) is -8.72; in the experiment on OVCAR4 (carboplatin co-treatment 5 µM), -0.749; with Ov4Carbo (carboplatin co-treatment 0 µM), 0.477; with Ov4Carbo (carboplatin co-treatment 5 µM), -0.252.

Take `CCC1(C)CC(=O)NC(=O)C1` [Bemegride]: the log2 surviving fraction was -0.21 in the experiment with OVCAR4 (carboplatin co-treatment 0 µM), 1.05 in the experiment on OVCAR4 (carboplatin co-treatment 5 µM), -0.547 with Ov4Carbo (carboplatin co-treatment 0 µM) and 0.258 in the experiment with Ov4Carbo (carboplatin co-treatment 5 µM).

Turning to `CCc1ccc(CCOc2ccc(CC3SC(=O)NC3=O)cc2)nc1` (stereo unspecified) [Pioglitazone (Actos)], the log2 surviving fraction was -0.185 with OVCAR4 (carboplatin co-treatment 0 µM), -0.307 in the experiment with OVCAR4 (carboplatin co-treatment 5 µM), -0.0516 with Ov4Carbo (carboplatin co-treatment 0 µM) and -0.184 with Ov4Carbo (carboplatin co-treatment 5 µM).

For the compound `CC[C@@]1(O)C(=O)OCc2c1cc1n(c2=O)Cc2cc3ccccc3nc2-1` [Camptothecin], the log2 surviving fraction in the experiment with OVCAR4 (carboplatin co-treatment 0 µM) is -8.64; in the experiment on OVCAR4 (carboplatin co-treatment 5 µM), -7.29; with Ov4Carbo (carboplatin co-treatment 0 µM), -7.74; in the experiment on Ov4Carbo (carboplatin co-treatment 5 µM), -6.98.

On to `Cc1cc(-n2c(=O)[nH]c(=O)n(C)c2=O)ccc1Oc1ccc(SC(F)(F)F)cc1` [toltrazuril], for which the log2 surviving fraction is 0.389 in the experiment on OVCAR4 (carboplatin co-treatment 0 µM), 0.0736 with OVCAR4 (carboplatin co-treatment 5 µM), 0.585 with Ov4Carbo (carboplatin co-treatment 0 µM) and 1.48 in the experiment with Ov4Carbo (carboplatin co-treatment 5 µM).

As for `CC[C@H](C)C(=O)O[C@H]1C[C@@H](C)C=C2C=C[C@H](C)[C@H](CC[C@@H]3C[C@@H](O)CC(=O)O3)[C@H]21` [Lovastatin (Mevacor)], the log2 surviving fraction in the experiment with OVCAR4 (carboplatin co-treatment 0 µM) was -1.89; in the experiment on OVCAR4 (carboplatin co-treatment 5 µM), -3.03; in the experiment on Ov4Carbo (carboplatin co-treatment 0 µM), -2.27; in the experiment with Ov4Carbo (carboplatin co-treatment 5 µM) it was -2.07.

As for `O=C(O)CCCN1CCC(O[C@@H](c2ccc(Cl)cc2)c2ccccn2)CC1` [Bepotastine Besilate], the log2 surviving fraction with OVCAR4 (carboplatin co-treatment 0 µM) was 0.631; in the experiment with OVCAR4 (carboplatin co-treatment 5 µM), -0.211; with Ov4Carbo (carboplatin co-treatment 0 µM), -0.322; in the experiment on Ov4Carbo (carboplatin co-treatment 5 µM), 0.51.

For `Cc1cc(C)nc(NS(=O)(=O)c2ccc(N)cc2)n1` [Sulfamethazine], the log2 surviving fraction with OVCAR4 (carboplatin co-treatment 0 µM) was 0.243; in the experiment on OVCAR4 (carboplatin co-treatment 5 µM) it was 0.183; in the experiment on Ov4Carbo (carboplatin co-treatment 0 µM), -0.348; in the experiment with Ov4Carbo (carboplatin co-treatment 5 µM), -0.444.

Take `C[C@@H](O)[C@H]1C(=O)N2C(C(=O)OCOC(=O)C(C)(C)C)=C(SC3CN(C4=NCCS4)C3)[C@H](C)[C@H]12` [Tebipenem pivoxil (L-084)]: the log2 surviving fraction with OVCAR4 (carboplatin co-treatment 0 µM) was -0.405; with OVCAR4 (carboplatin co-treatment 5 µM) it was 0.309; in the experiment on Ov4Carbo (carboplatin co-treatment 0 µM), -0.0252; in the experiment on Ov4Carbo (carboplatin co-treatment 5 µM), -0.363.

As to `O=C(Oc1ccccc1C(=O)O)c1ccccc1O` [Sasapyrine], the log2 surviving fraction with OVCAR4 (carboplatin co-treatment 0 µM) was 0.049; in the experiment with OVCAR4 (carboplatin co-treatment 5 µM) it was -0.297; in the experiment on Ov4Carbo (carboplatin co-treatment 0 µM), -0.621; in the experiment with Ov4Carbo (carboplatin co-treatment 5 µM), -0.768.

Take `CCC1(c2ccc(N)cc2)CCC(=O)NC1=O` (stereo unspecified) [Aminoglutethimide (Cytadren)]: the log2 surviving fraction in the experiment on OVCAR4 (carboplatin co-treatment 0 µM) was -4.02; in the experiment on OVCAR4 (carboplatin co-treatment 5 µM), 0.763; with Ov4Carbo (carboplatin co-treatment 0 µM) it was 1.18; in the experiment with Ov4Carbo (carboplatin co-treatment 5 µM), 0.234.

`Cc1cccc(Nc2ccccc2C(=O)O)c1C` [Mefenamic acid]: the log2 surviving fraction was -0.339 in the experiment with OVCAR4 (carboplatin co-treatment 0 µM), -0.437 in the experiment on OVCAR4 (carboplatin co-treatment 5 µM), 0.21 with Ov4Carbo (carboplatin co-treatment 0 µM) and -1.39 in the experiment on Ov4Carbo (carboplatin co-treatment 5 µM).

Turning to `c1cnc2cc3c(cc2n1)[C@@H]1CNC[C@H]3C1` [Varenicline tartrate], the log2 surviving fraction in the experiment with OVCAR4 (carboplatin co-treatment 0 µM) is -9.11; in the experiment on OVCAR4 (carboplatin co-treatment 5 µM), -0.877; in the experiment with Ov4Carbo (carboplatin co-treatment 0 µM), -7.91; in the experiment on Ov4Carbo (carboplatin co-treatment 5 µM) it was 0.472.
